# Reference: PubChem BioAssay AID624417 (National Center for Advancing Translational Sciences (NCATS), 2012)
# Among all 410,000 compounds or so, about 6,400 (1.6%) were called active. The shares of active, inactive and inconclusive entries below differ from those in the screen. Calls follow the shape of the dose curve; as a rule, active = well fitted inhibition curve with a large enough effect; inconclusive = small, poorly fitted or top-dose-only effect; inactive = no such curve, though single readings can be large or run the other way. No potency is given beside an inconclusive call; the fits are too rough.
# Molecular target: Glucagon-like peptide 1 receptor (Homo sapiens) (UniProt P43220)
# Sequence of UniProt P43220 (P43220 whole entry, looked up): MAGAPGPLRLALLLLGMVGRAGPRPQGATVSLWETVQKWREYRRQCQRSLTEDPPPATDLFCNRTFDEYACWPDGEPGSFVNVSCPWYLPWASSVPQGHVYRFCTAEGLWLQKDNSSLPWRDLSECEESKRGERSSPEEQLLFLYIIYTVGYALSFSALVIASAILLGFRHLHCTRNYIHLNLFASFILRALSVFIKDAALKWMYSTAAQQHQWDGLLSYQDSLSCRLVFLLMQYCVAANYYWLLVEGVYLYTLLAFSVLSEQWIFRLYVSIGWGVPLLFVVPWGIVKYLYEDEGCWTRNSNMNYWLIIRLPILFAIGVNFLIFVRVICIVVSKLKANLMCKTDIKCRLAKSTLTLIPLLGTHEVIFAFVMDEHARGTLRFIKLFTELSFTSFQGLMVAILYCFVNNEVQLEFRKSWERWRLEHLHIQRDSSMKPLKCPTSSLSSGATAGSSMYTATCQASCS
# Assay: qHTS of GLP-1 Receptor Inverse Agonists (Inhibition Mode); also: nearly all actives have a fitted effect of over 55% in size
# Conditions: HEK293 GLP-1R CRE-luciferase, luminescence, 24 h, GLP-1R form is constitutively active; series mostly up to 38.3 µM
# How it was run: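 Cells are plated, allowed 12 hours at 37 deg C, then treated with compounds for 24 hr before luciferase detection reagent is added and luminescence is read after 12 min at room temperature. The HEK293 line carries constitutively active GLP-1R with a cAMP-responsive reporter.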
# Potency is read from the fitted curve at half-maximal effect; tags tell the direction and shape of the fitted curve.
row,SMILES,Potency
1,COc1cc2c(cc1NC(=O)CSc1nnc(COc3ccc(Cl)cc3)n1C)oc1ccccc12,"inconclusive [inhibitor, single point]"
2,Cc1c(Cl)cccc1NC(=S)N(Cc1ccccc1)Cc1cccnc1,"inconclusive [inhibitor, single point]"
3,O/N=C/c1ccnc(SCc2ccc(Cl)cc2)n1,"inconclusive [inhibitor, single point]"
4,CN1CCN(c2ccccc2NC(=O)c2cccc(OCc3ccccc3)c2)CC1,"inconclusive [inhibitor, single point]"
5,Clc1cccc(-c2nc(NCCCN3CCOCC3)c3ccccc3n2)c1,active: 10 µM
6,Cc1c(Cl)ccc2c(C(=O)NCCN3CCCCC3)cc(-c3ccccn3)nc12,active: 3.55 µM
7,CC(C)(C)c1ccc(NC(=O)CSc2n[nH]c(=O)n2-c2cccnc2)cc1,"inconclusive [inhibitor, partial curve, poor fit]"
8,COc1ccc(-c2cnnn2-c2ccc(NC(=O)c3ccc(S(=O)(=O)N(C)C)cc3)cc2)cc1,inactive
9,Cc1ccc(C)c(N2CCN(CCCNC(=O)Cn3c(=O)c4cccn4c4cccnc43)CC2)c1,"inconclusive [inhibitor, partial curve, poor fit]"
10,CSCCC(c1nc2ccccc2[nH]1)n1c(/C=C/c2ccc(F)c(F)c2)nc2ccccc21 (configuration not stated),"inconclusive [inhibitor, partial curve, poor fit]"
11,COc1ccc(C)cc1NC(=O)c1cc(S(=O)(=O)NC2CCCCCC2)ccc1F,"inconclusive [inhibitor, partial curve, poor fit]"
12,COc1cccc(Nc2nc(-c3cccnc3)cs2)c1,"inconclusive [inhibitor, single point]"
13,Cc1cc(C)c(C)c(OCCn2ccnc2)c1,"inconclusive [inhibitor, partial curve, poor fit]"
14,O=C(COc1ccc(S(=O)(=O)N2CCOCC2)cc1)Nc1ccc(Br)cc1,"inconclusive [inhibitor, single point]"
15,COC(=O)c1sccc1NC(=O)c1ccc2c(c1)OCO2,inactive
16,Cc1ccccc1NC(=S)N(CCCN1CCOCC1)Cc1cccs1,inactive
17,CCC(C)n1c(SCC(=O)Nc2cc(C)on2)nc2ccccc2c1=O (configuration not stated),"inconclusive [inhibitor, single point]"
18,CS(=O)(=O)NNC(=O)c1cc2cc3ccccc3nc2s1,inactive
19,O=C(Cc1cccs1)N1CCN(S(=O)(=O)c2ccc(Br)cc2)CC1,"inconclusive [inhibitor, partial curve, poor fit]"
20,CCC(CC)c1nn2c(=O)cc(COc3ccc(NC(=O)c4ccccc4Cl)cc3)nc2s1,inactive
21,O=C(O)c1cccc2c1C(=O)c1ccc(-c3ccc(F)cc3OCc3ccccc3)cc1S2(=O)=O,inactive

row,SMILES,Potency
1,CC12CCC(=O)N1C(C(=O)Nc1ccccc1N1CCCCC1)CS2 (configuration not stated),"inconclusive [inhibitor, partial curve, poor fit]"
2,C[C@H](CO)N1C[C@H](C)[C@@H](CN(C)C(=O)Nc2ccccc2)Oc2c(NC(=O)Nc3ccc(C(F)(F)F)cc3)cccc2C1=O,"inconclusive [inhibitor, single point]"
3,Cc1ccc(NC(=S)NC2CCN(Cc3ccccc3)CC2)cc1C,"inconclusive [inhibitor, partial curve, poor fit]"
4,Cc1ccc(NC(=S)NC2CCSc3ccccc32)cc1 (configuration not stated),"inconclusive [inhibitor, partial curve, poor fit]"
5,O=C(COc1ccccc1F)OCc1cc(=O)n2nc(-c3cccs3)sc2n1,inactive
6,COc1ccccc1/C=C1\SC(N2CCC(C)CC2)=NC1=O,"inconclusive [inhibitor, partial curve, poor fit]"
7,COC1OC(COC(=O)c2ccccc2)C(OC(=O)c2ccccc2)C1OC(=O)c1ccccc1 (configuration not stated),"inconclusive [inhibitor, full curve, poor fit]"
8,COc1cccc(C2CC(c3cccs3)=NN2C(=O)CSc2nc3ccccc3o2)c1OC (configuration not stated),inactive
9,N#Cc1c(-c2cccs2)nc(SCC(=O)c2ccc(Br)cc2)[nH]c1=O,"inconclusive [inhibitor, partial curve, poor fit]"
10,Cc1cc(-c2ccc(S(=O)(=O)N(C)c3ccc(C)c(C)c3)s2)on1,"inconclusive [inhibitor, full curve]"
11,CCCCCOc1ccc(CSC2=NCCN2)cc1[N+](=O)[O-],active: 3.98 µM
12,COCCNC(=O)CSc1ccc(Cl)cc1,inactive
13,Nc1nonc1-n1nnc(C(=O)N/N=C/c2cccc(Cl)c2)c1CSc1ccccc1,"inconclusive [inhibitor, single point]"
14,CCOC(=O)c1cc2oc(C(c3nnnn3C3CCCCC3)N3CCOCC3)cc2[nH]1 (configuration not stated),"inconclusive [inhibitor, single point]"
15,Cc1cccc(-n2c(SCC(=O)N3CC(=O)Nc4ccccc43)nc3ccccc3c2=O)c1C,"inconclusive [inhibitor, single point]"
16,Cc1cc(N/N=C/c2ccccc2F)c2ccccc2n1,"inconclusive [inhibitor, single point]"
17,CC12CC3(C)CC(C)(C1)CC(NC(=O)N1CCCC1)(C2)C3,active: 10 µM
18,Cc1cc2nc(C3CCCCC3)c(Cc3cccc(F)c3)n2c(C)c1Br,"inconclusive [inhibitor, partial curve, poor fit]"
19,O=C(Nc1cccc(-c2csc(-c3ccccc3)n2)c1)c1cccs1,"inconclusive [inhibitor, single point]"
20,Cc1cc(C)nc(N/C(=N\S(=O)(=O)Cc2ccccc2)Nc2ccccc2Br)n1,"inconclusive [inhibitor, partial curve]"
21,CCN(c1ccccc1)S(=O)(=O)c1ccc(OC)c(NC(=O)CN(C)C)c1,"inconclusive [inhibitor, partial curve, poor fit]"
